Experimental data: paper PMC4336329 (PLoS ONE, 2015)
Screen size: about 310,000 compounds; about 14,000 (4.5%) showed an effect of 50% or more. Effects have a minus sign here. The list shows a part of the results.
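Further: peak tail current of the secondary pulse compared with the same well before compound.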

The compounds below were run against human ether-à-go-go-related gene (hERG) potassium channel (human, UniProt Q12809) (assay: primary screen, population patch clamp on CHO cells stably expressing hERG).
Chain of human ether-à-go-go-related gene (hERG) potassium channel (Q12809 whole entry, looked up): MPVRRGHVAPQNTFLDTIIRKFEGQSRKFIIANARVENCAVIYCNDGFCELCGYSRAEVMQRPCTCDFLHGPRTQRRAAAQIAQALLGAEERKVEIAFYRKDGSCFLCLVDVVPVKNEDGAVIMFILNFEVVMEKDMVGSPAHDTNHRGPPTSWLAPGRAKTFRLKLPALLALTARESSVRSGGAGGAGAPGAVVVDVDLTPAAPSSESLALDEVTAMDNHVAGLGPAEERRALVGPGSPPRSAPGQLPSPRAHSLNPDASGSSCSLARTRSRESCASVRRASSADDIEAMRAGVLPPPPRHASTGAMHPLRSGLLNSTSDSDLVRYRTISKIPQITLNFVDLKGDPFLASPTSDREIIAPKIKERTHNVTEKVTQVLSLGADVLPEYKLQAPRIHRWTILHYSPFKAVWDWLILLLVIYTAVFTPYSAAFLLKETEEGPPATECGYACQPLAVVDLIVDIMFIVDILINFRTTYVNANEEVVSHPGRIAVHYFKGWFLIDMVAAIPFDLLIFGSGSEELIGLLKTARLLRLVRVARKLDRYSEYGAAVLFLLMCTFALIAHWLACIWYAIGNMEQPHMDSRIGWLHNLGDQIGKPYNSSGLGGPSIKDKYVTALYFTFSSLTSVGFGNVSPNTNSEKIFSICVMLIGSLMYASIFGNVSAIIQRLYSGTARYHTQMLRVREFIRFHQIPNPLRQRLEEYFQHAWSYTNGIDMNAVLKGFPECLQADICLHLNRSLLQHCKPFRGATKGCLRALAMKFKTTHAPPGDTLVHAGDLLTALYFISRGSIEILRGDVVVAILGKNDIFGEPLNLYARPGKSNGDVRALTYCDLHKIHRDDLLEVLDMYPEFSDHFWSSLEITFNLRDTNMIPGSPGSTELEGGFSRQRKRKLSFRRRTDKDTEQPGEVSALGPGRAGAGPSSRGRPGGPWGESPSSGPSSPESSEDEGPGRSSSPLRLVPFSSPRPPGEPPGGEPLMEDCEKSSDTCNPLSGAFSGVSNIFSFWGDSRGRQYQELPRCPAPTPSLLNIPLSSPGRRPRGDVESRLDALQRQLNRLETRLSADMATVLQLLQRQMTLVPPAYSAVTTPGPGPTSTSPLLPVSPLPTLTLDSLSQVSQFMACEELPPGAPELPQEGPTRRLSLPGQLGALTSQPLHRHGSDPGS
For `Cc1ccc(OCC(=O)O/N=C(\N)c2ccccn2)cc1C`, the “hERG current change (%, negative = inhibition) at 10uM” value was -11.3%. `O=C(Cn1cnc2cc([N+](=O)[O-])ccc2c1=O)Nc1ccc2c(c1)CCC2` was tested, and the “hERG current change (%, negative = inhibition) at 10uM” value was 14.9%. With `Cc1[nH]c(=O)[nH]c(=O)c1S(=O)(=O)Nc1ccc(F)cc1Cl` the “hERG current change (%, negative = inhibition) at 10uM” value was 17.1%. In the case of `COc1ccc(C(=O)NCCS(=O)(=O)NCc2ccccc2OC)cc1`, the “hERG current change (%, negative = inhibition) at 10uM” value is reported as -9.14%. With `O=C(NC1CCCCC1)c1ccc(S(=O)(=O)c2ccccc2)cc1` the “hERG current change (%, negative = inhibition) at 10uM” value was 2.02%. With `O=C(NCCc1c[nH]c2ccccc12)/C(=C\c1cccnc1)NC(=O)c1ccco1` the “hERG current change (%, negative = inhibition) at 10uM” value was -65.1%. In the case of `CCC1CCCCN1S(=O)(=O)c1ccc(C(=O)Nc2nnc(-c3cccs3)o2)cc1` (stereo not shown), the “hERG current change (%, negative = inhibition) at 10uM” value is reported as -10.6%. With `CNC(=S)NCc1ccc(Cl)cc1` the “hERG current change (%, negative = inhibition) at 10uM” value was -5.22%. In the case of `CSC1=NCCN1C(=O)c1c(F)cccc1Cl`, the “hERG current change (%, negative = inhibition) at 10uM” value is reported as -6.56%. In the case of `CCN(CC(=O)Nc1ccccc1C(F)(F)F)C(=O)c1cc(S(=O)(=O)N(C)C)ccc1N1CCCC1`, the “hERG current change (%, negative = inhibition) at 10uM” value is reported as 10.2%. `O=c1[nH]c(CSc2ncnc3sc(-c4ccccc4)cc23)nc2ccccc12` was tested, and the “hERG current change (%, negative = inhibition) at 10uM” value was 21.2%. `CCN(CC)c1ccc(NC(=S)NCC2CCCO2)cc1` (stereo not shown) was tested, and the “hERG current change (%, negative = inhibition) at 10uM” value was 7.83%. `CCCCn1c(N)c(N(CCC(C)C)C(=O)c2ccccc2C)c(=O)[nH]c1=O` was tested, and the “hERG current change (%, negative = inhibition) at 10uM” value was 21.9%. For `O=C(Nc1ccc2oc(-c3ccncc3)nc2c1)c1ccc2c(c1)OCCO2`, the “hERG current change (%, negative = inhibition) at 10uM” value was 9.11%. In the case of `O=C(NCc1ccco1)c1cccc(N2CCCC2=O)c1`, the “hERG current change (%, negative = inhibition) at 10uM” value is reported as -0.984%. `O=C(c1ccc(Cl)c(Cl)c1)N1CCC(=O)N(C(COCc2cccc(C(F)(F)F)c2)Cc2ccccc2)CC1` (stereo not shown) was tested, and the “hERG current change (%, negative = inhibition) at 10uM” value was -19.7%. For `CC1CCC2(CC1)NC(=O)N(CC(=O)NCc1cccs1)C2=O` (stereo not shown), the “hERG current change (%, negative = inhibition) at 10uM” value was 1.95%. With `O=C(Nc1ccc(Cl)cc1)N(Cc1nnc2n1CCCCC2)c1ccccc1` the “hERG current change (%, negative = inhibition) at 10uM” value was -15.7%. `Cn1c(=O)[nH]c(=O)c2c1nc(SCCC(=O)O)n2Cc1cccc(Br)c1` was tested, and the “hERG current change (%, negative = inhibition) at 10uM” value was 1.52%. With `CCOC(=O)N1CCC(NCCNC(=O)c2cccc(F)c2)CC1.Cl` the “hERG current change (%, negative = inhibition) at 10uM” value was -3.59%. For `CCOC(=O)[C@@H](CCc1ccccc1)N[C@H](C)C(=O)N1[C@H](C(=O)O)C[C@@H]2CCC[C@@H]21`, the “hERG current change (%, negative = inhibition) at 10uM” value was 15.9%. In the case of `O=C(O)c1cccc(N2C(=O)c3cccnc3C2=O)c1`, the “hERG current change (%, negative = inhibition) at 10uM” value is reported as 3.41%. `Cc1cccc(NC(=O)C2CCN(S(=O)(=O)c3cccc4nsnc34)CC2)c1` was tested, and the “hERG current change (%, negative = inhibition) at 10uM” value was -6.3%. In the case of `Cc1cc(NC(=O)CSC2=NS(=O)(=O)c3ccccc3N2)no1`, the “hERG current change (%, negative = inhibition) at 10uM” value is reported as 15.3%. For `O=C(N/C(=C\c1ccc(O)cc1)C(=O)N1CCCCC1)c1ccccc1`, the “hERG current change (%, negative = inhibition) at 10uM” value was 5.13%. For `Cc1ccc(C(=O)N2CCN=C2SCc2ccc([N+](=O)[O-])cc2)cc1`, the “hERG current change (%, negative = inhibition) at 10uM” value was -70.5%. In the case of `NNC(=O)CCN(Cc1ccco1)S(=O)(=O)c1ccc(Cl)cc1`, the “hERG current change (%, negative = inhibition) at 10uM” value is reported as 7.94%. In the case of `Cc1csc(C(C#N)C(=O)c2ccncc2)n1` (stereo not shown), the “hERG current change (%, negative = inhibition) at 10uM” value is reported as 19.2%. With `COc1ccc(Oc2coc3cc(OC(=O)c4cncc(Br)c4)ccc3c2=O)cc1` the “hERG current change (%, negative = inhibition) at 10uM” value was 11.3%. For `COc1ccc(-n2ccnc2SCC(=O)NC2CCCC2)c(OC)c1`, the “hERG current change (%, negative = inhibition) at 10uM” value was -10.8%. For `COc1cccc(OC)c1C(=O)Nc1cccc2c1CCCC2`, the “hERG current change (%, negative = inhibition) at 10uM” value was 9.17%. With `CC(C)(C)c1ccc(/C=N/Nc2ccc(C(=O)O)cc2)cc1` the “hERG current change (%, negative = inhibition) at 10uM” value was 5.01%. `c1ccc(CNc2nc3ccccc3n3cnnc23)cc1` was tested, and the “hERG current change (%, negative = inhibition) at 10uM” value was -4.49%. With `CC1=NN(c2ccc(C(=O)O)cc2)C(=O)CC1` the “hERG current change (%, negative = inhibition) at 10uM” value was 14.1%. `Oc1[nH]c2ccccc2c1N=NC(=S)NCCc1ccccc1` was tested, and the “hERG current change (%, negative = inhibition) at 10uM” value was 11.2%. With `CC(C)c1ccc(C2N3CC4([N+](=O)[O-])CN2CC([N+](=O)[O-])(C3)C4(C)C)cc1` (stereo not shown) the “hERG current change (%, negative = inhibition) at 10uM” value was 28.4%. In the case of `Cc1ccc2cc([N+](=O)[O-])ccc2n1`, the “hERG current change (%, negative = inhibition) at 10uM” value is reported as 13.3%. In the case of `CCOc1cc2[nH]c(=S)n(CCCC(=O)NCc3ccccn3)c(=O)c2cc1OCC`, the “hERG current change (%, negative = inhibition) at 10uM” value is reported as 17.2%. `COc1cccc(NC(C)=[N+](C)CCNS(=O)(=O)c2ccc(Cl)cc2)c1.[I-]` was tested, and the “hERG current change (%, negative = inhibition) at 10uM” value was -64.4%. For `CCOC(=O)CC(=O)CSc1nc2c(cc1C#N)CCCCCC2`, the “hERG current change (%, negative = inhibition) at 10uM” value was -1.49%. `CCOC(=O)CC1C(=O)NCCN1C(=O)Nc1ccc(Cl)cc1` (stereo not shown) was tested, and the “hERG current change (%, negative = inhibition) at 10uM” value was 2.37%. `N#Cc1c(N)nc(SCC(=O)NCc2ccc3c(c2)OCO3)c(C#N)c1-c1cccs1` was tested, and the “hERG current change (%, negative = inhibition) at 10uM” value was -7.09%. For `Cc1noc(C)c1COc1ccccc1C(=O)N(C)Cc1ccco1`, the “hERG current change (%, negative = inhibition) at 10uM” value was -1.8%. `CCCS(=O)(=O)N1CCCC(C(=O)N2CCC(Cc3ccccc3)CC2)C1` (stereo not shown) was tested, and the “hERG current change (%, negative = inhibition) at 10uM” value was -19.9%. With `CCn1c(O)c(/C=N/N=C/c2ccccc2)c2ccc(C3=NNC(=O)CC3)cc21` the “hERG current change (%, negative = inhibition) at 10uM” value was -2.88%. With `CC1CCCN(C(=O)Nc2cccc(NC(=O)N3CCCC(C)C3C)c2)C1C` (stereo not shown) the “hERG current change (%, negative = inhibition) at 10uM” value was 0.168%. `CC(/C=N\NC(=O)CN1CCN(Cc2ccccc2)CC1)=C\c1ccco1` was tested, and the “hERG current change (%, negative = inhibition) at 10uM” value was -53.6%. With `O=C(CSc1nnc(Nc2ccccc2)s1)Nc1cccnc1Cl` the “hERG current change (%, negative = inhibition) at 10uM” value was -6.39%. With `COCCCNC(=O)CSc1c2c(nc3ccc(Cl)cc13)CCCC2` the “hERG current change (%, negative = inhibition) at 10uM” value was 5.57%. With `CCN(Cc1ccccc1)S(=O)(=O)c1cc(C(=O)OC)n(C)c1` the “hERG current change (%, negative = inhibition) at 10uM” value was -32.9%. With `CCOc1ccccc1NC(=O)CCCCCN1C(=O)[C@@H]2Cc3ccccc3CN2C1=O` the “hERG current change (%, negative = inhibition) at 10uM” value was -42.6%. For `C1=C(C(c2nnnn2C2CCCCC2)N2CCCCC2)COc2ccccc21` (stereo not shown), the “hERG current change (%, negative = inhibition) at 10uM” value was -0.938%. In the case of `CCn1cc(C(=O)O)c(=O)c2cc(F)c(N3CCN(C(=S)Nc4ccccc4OC)CC3)cc21`, the “hERG current change (%, negative = inhibition) at 10uM” value is reported as -4.39%. For `CCN=C(NCC)SC1CC(=O)N(c2cccc(OCC)c2)C1=O` (stereo not shown), the “hERG current change (%, negative = inhibition) at 10uM” value was 2.63%. `CCC1(c2ccccc2)NC(=O)N(CC(=O)N(C)CC(=O)Nc2ccc(F)c(F)c2F)C1=O` (stereo not shown) was tested, and the “hERG current change (%, negative = inhibition) at 10uM” value was -14.7%.
